Data taken from US20040126856A1 (published 2004).

Assays:
[1] = molecular target: T1, A2 subunit of factor VIIIa (human, UniProt P00451 392-759); assay: apparent KdA2 against that of WT
T1 construct: also called isolated A2 subunit
T1 sequence: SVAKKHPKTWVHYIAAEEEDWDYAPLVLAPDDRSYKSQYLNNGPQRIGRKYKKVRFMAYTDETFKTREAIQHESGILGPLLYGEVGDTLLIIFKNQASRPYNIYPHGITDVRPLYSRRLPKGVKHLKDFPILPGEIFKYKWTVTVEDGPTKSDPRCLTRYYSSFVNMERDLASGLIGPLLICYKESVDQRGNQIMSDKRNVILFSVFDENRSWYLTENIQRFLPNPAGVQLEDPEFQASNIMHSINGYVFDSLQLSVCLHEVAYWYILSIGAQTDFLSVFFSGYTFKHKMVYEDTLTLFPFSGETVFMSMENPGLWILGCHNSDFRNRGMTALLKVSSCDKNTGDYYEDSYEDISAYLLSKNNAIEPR

[2] = molecular target: T1, A2 subunit of factor VIIIa; assay: calculated from apparent KdA2 (RT ln Kd, 298 K)

B1: dEGR-IXaR333Q (factor IXaR333Q inactivated with dansyl-Glu-Gly-Arg-chloromethyl ketone) (enzyme)
light: YNSGKLEEFVQGNLERECMEEKCSFEEAREVFENTERTTEFWKQYVDGDQCESNPCLNGGSCKDDINSYECWCPFGFEGKNCELDVTCNIKNGRCEQFCKNSADNKVVCSCTEGYRLAENQKSCEPAVPFPCGRVSVSQTSKLT
heavy: [omitted - about 250 residues with changes]
modifications: active site inactivated with dansyl-Glu-Gly-Arg-chloromethyl ketone (dEGR-ck); gamma-carboxyglutamic acid residues in the Gla domain (normal Gla content)
[1]
  fold-change in apparent Kd (mutant/WT): 18 fold
[2]
  Gibbs free energy (delta G° A2): 7.82 kcal/mol
